From the supplement of paper PMC4967469

compound: O=C1NC(=O)c2c1c(-c1ccccc1Cl)cc1[nH]c3ccc(O)cc3c21 [Wee1 inhibitor 681640]; experiment: Viability of human cancer cell lines after 72 h of drug (GDSC screen); conditions: top dose 2 µM; top dose inferred
Method: (§1)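 Human cancer cell lines in 384-well plates, medium with 10% serum, drug for 72 h over a 256-fold dose range (nine 2-fold or five 4-fold steps up to the top dose). Adherent lines were fixed and stained with the nucleic acid dye Syto60, suspension lines read with resazurin; signal relative to control wells, capped at 0 and 100%. One two-parameter sigmoid per drug and line, fitted in a mixed model over all curves with the slope shared within a line.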

Cell Line | AUC | IC50
SF539 (glioma, adherent) | 0.86 | 1.41 µM

compound: NC(=O)c1ccc(N(C(N)=O)c2c(F)cccc2F)nc1-c1ccc(F)cc1F [VX-702]; experiment: as above; conditions: top dose 2 µM; top dose inferred
Method: as §1

Cell Line | AUC | IC50
NCI-H2081 (small cell lung carcinoma, suspension) | 0.97 | > 2 µM
NCI-H2135 (non-small cell lung carcinoma, adherent) | 0.989 | > 2 µM
NCI-SNU-1 (stomach, suspension) | 0.986 | > 2 µM
NKM-1 (acute myeloid leukaemia, suspension) | 0.89 | > 2 µM
OCI-AML2 (acute myeloid leukaemia, suspension) | 0.995 | > 2 µM
OCI-M1 (acute myeloid leukaemia, suspension) | 0.994 | > 2 µM
OMC-1 (cervix, adherent) | 0.988 | > 2 µM
OPM-2 (myeloma, suspension) | 0.994 | > 2 µM
P30-OHK (lymphoblastic leukaemia, suspension) | 0.986 | > 2 µM
P31-FUJ (acute myeloid leukaemia, suspension) | 0.994 | > 2 µM
P32-ISH (Burkitt lymphoma, suspension) | 0.991 | > 2 µM
PF-382 (T-cell lymphoblastic leukaemia, suspension) | 0.985 | > 2 µM
PSN1 (pancreas, adherent) | 0.987 | > 2 µM
RCC10RGB (kidney, adherent) | 0.953 | > 2 µM
REH (B-cell leukaemia, suspension) | 0.967 | > 2 µM
RF-48 (stomach, adherent) | 0.981 | > 2 µM
ROS-50 (B-cell leukaemia, suspension) | 0.971 | > 2 µM
RPMI-6666 (Hodgkin lymphoma, suspension) | 0.945 | > 2 µM
Raji (Burkitt lymphoma, suspension) | 0.987 | > 2 µM
Ramos-2G6-4C10 (Burkitt lymphoma, suspension) | 0.902 | 1.96 µM
SCH (stomach, adherent) | 0.977 | > 2 µM
SF539 (glioma, adherent) | 0.987 | > 2 µM

compound: Cc1cccc(-c2[nH]c(C(C)(C)C)nc2-c2ccc3nccnc3c2)n1 [SB-525334]; experiment: as above; conditions: top dose 20 µM; top dose inferred
Method: as §1

Cell Line | AUC | IC50
NCI-H2081 (small cell lung carcinoma, suspension) | 0.962 | > 20 µM
NCI-H2135 (non-small cell lung carcinoma, adherent) | 0.924 | > 20 µM
NCI-SNU-1 (stomach, suspension) | 0.929 | > 20 µM
NKM-1 (acute myeloid leukaemia, suspension) | 0.966 | > 20 µM
OCI-AML2 (acute myeloid leukaemia, suspension) | 0.971 | > 20 µM
OCI-M1 (acute myeloid leukaemia, suspension) | 0.916 | 17.1 µM
OMC-1 (cervix, adherent) | 0.966 | > 20 µM
OPM-2 (myeloma, suspension) | 0.972 | > 20 µM
P30-OHK (lymphoblastic leukaemia, suspension) | 0.824 | 9.37 µM
P31-FUJ (acute myeloid leukaemia, suspension) | 0.994 | > 20 µM
P32-ISH (Burkitt lymphoma, suspension) | 0.911 | 15.6 µM
PF-382 (T-cell lymphoblastic leukaemia, suspension) | 0.953 | > 20 µM
PSN1 (pancreas, adherent) | 0.938 | > 20 µM
RCC10RGB (kidney, adherent) | 0.882 | > 20 µM
REH (B-cell leukaemia, suspension) | 0.935 | > 20 µM
RF-48 (stomach, adherent) | 0.728 | 6.08 µM
ROS-50 (B-cell leukaemia, suspension) | 0.856 | > 20 µM
RPMI-6666 (Hodgkin lymphoma, suspension) | 0.878 | > 20 µM
Raji (Burkitt lymphoma, suspension) | 0.92 | > 20 µM
Ramos-2G6-4C10 (Burkitt lymphoma, suspension) | 0.963 | > 20 µM
SCH (stomach, adherent) | 0.988 | > 20 µM
SF539 (glioma, adherent) | 0.987 | > 20 µM

compound: COc1cc(N2CCN(C)CC2)ccc1Nc1ncc2c(n1)N(C)c1ccccc1C(=O)N2C [XMD8-85]; experiment: as above; conditions: top dose 8 µM; top dose inferred
Method: as §1

Cell Line | AUC | IC50
NCI-H2081 (small cell lung carcinoma, suspension) | 0.976 | > 8 µM
NCI-H2135 (non-small cell lung carcinoma, adherent) | 0.971 | > 8 µM
NCI-SNU-1 (stomach, suspension) | 0.876 | > 8 µM
NKM-1 (acute myeloid leukaemia, suspension) | 0.877 | > 8 µM
OCI-AML2 (acute myeloid leukaemia, suspension) | 0.846 | 3.77 µM
OCI-M1 (acute myeloid leukaemia, suspension) | 0.928 | 7.75 µM
OMC-1 (cervix, adherent) | 0.946 | > 8 µM
OPM-2 (myeloma, suspension) | 0.805 | 3.17 µM
P30-OHK (lymphoblastic leukaemia, suspension) | 0.965 | > 8 µM
P31-FUJ (acute myeloid leukaemia, suspension) | 0.995 | > 8 µM
P32-ISH (Burkitt lymphoma, suspension) | 0.844 | 3.75 µM
PF-382 (T-cell lymphoblastic leukaemia, suspension) | 0.794 | 3.19 µM
PSN1 (pancreas, adherent) | 0.942 | > 8 µM
RCC10RGB (kidney, adherent) | 0.785 | > 8 µM
REH (B-cell leukaemia, suspension) | 0.733 | 2.24 µM
RF-48 (stomach, adherent) | 0.949 | > 8 µM
ROS-50 (B-cell leukaemia, suspension) | 0.797 | 5.01 µM
RPMI-6666 (Hodgkin lymphoma, suspension) | 0.822 | 5.97 µM
Raji (Burkitt lymphoma, suspension) | 0.903 | > 8 µM
Ramos-2G6-4C10 (Burkitt lymphoma, suspension) | 0.881 | 6.27 µM
SCH (stomach, adherent) | 0.987 | > 8 µM
SF539 (glioma, adherent) | 0.846 | 5 µM

compound: COc1cc(-c2nn([C@H]3CC[C@H](N4CCN(C(C)=O)CC4)CC3)c3ncnc(N)c23)ccc1NC(=O)c1cc2ccccc2n1C [A-770041]; experiment: as above; conditions: top dose 5.12 µM; top dose inferred
Method: as §1

Cell Line | AUC | IC50
NCI-H2081 (small cell lung carcinoma, suspension) | 0.987 | > 5.12 µM
NCI-H2135 (non-small cell lung carcinoma, adherent) | 0.989 | > 5.12 µM
NCI-SNU-1 (stomach, suspension) | 0.95 | > 5.12 µM
NKM-1 (acute myeloid leukaemia, suspension) | 0.984 | > 5.12 µM
OCI-AML2 (acute myeloid leukaemia, suspension) | 0.927 | 4.56 µM
OCI-M1 (acute myeloid leukaemia, suspension) | 0.995 | > 5.12 µM
OMC-1 (cervix, adherent) | 0.986 | > 5.12 µM
OPM-2 (myeloma, suspension) | 0.974 | > 5.12 µM
P30-OHK (lymphoblastic leukaemia, suspension) | 0.978 | > 5.12 µM
P31-FUJ (acute myeloid leukaemia, suspension) | 0.993 | > 5.12 µM
P32-ISH (Burkitt lymphoma, suspension) | 0.792 | 1.71 µM
PF-382 (T-cell lymphoblastic leukaemia, suspension) | 0.889 | 4.56 µM
PSN1 (pancreas, adherent) | 0.698 | 1.03 µM
RCC10RGB (kidney, adherent) | 0.863 | > 5.12 µM
REH (B-cell leukaemia, suspension) | 0.938 | > 5.12 µM
RF-48 (stomach, adherent) | 0.85 | 4.62 µM
ROS-50 (B-cell leukaemia, suspension) | 0.95 | > 5.12 µM
RPMI-6666 (Hodgkin lymphoma, suspension) | 0.698 | 1.3 µM
Raji (Burkitt lymphoma, suspension) | 0.945 | > 5.12 µM
Ramos-2G6-4C10 (Burkitt lymphoma, suspension) | 0.909 | > 5.12 µM
SCH (stomach, adherent) | 0.986 | > 5.12 µM
SF539 (glioma, adherent) | 0.965 | > 5.12 µM

compound: Cc1cc(N2CCOCC2)cc2[nH]c(-c3c(NC[C@@H](O)c4cccc(Cl)c4)cc[nH]c3=O)nc12 [BMS-536924]; experiment: as above; conditions: top dose 4 µM; screen: GDSC drug entry 1091; top dose inferred
Method: as §1

Cell Line | AUC | IC50
NCI-H2081 (small cell lung carcinoma, suspension) | 0.986 | > 4 µM
NCI-H2135 (non-small cell lung carcinoma, adherent) | 0.99 | > 4 µM
NCI-SNU-1 (stomach, suspension) | 0.978 | > 4 µM
NKM-1 (acute myeloid leukaemia, suspension) | 0.875 | > 4 µM
OCI-AML2 (acute myeloid leukaemia, suspension) | 0.918 | 3.29 µM
OCI-M1 (acute myeloid leukaemia, suspension) | 0.817 | 1.59 µM
OMC-1 (cervix, adherent) | 0.945 | > 4 µM
OPM-2 (myeloma, suspension) | 0.893 | 3.22 µM
P30-OHK (lymphoblastic leukaemia, suspension) | 0.751 | 1.13 µM
P31-FUJ (acute myeloid leukaemia, suspension) | 0.99 | > 4 µM
P32-ISH (Burkitt lymphoma, suspension) | 0.972 | > 4 µM
PF-382 (T-cell lymphoblastic leukaemia, suspension) | 0.99 | > 4 µM
PSN1 (pancreas, adherent) | 0.942 | > 4 µM
REH (B-cell leukaemia, suspension) | 0.733 | 1.11 µM
RF-48 (stomach, adherent) | 0.924 | > 4 µM
ROS-50 (B-cell leukaemia, suspension) | 0.978 | > 4 µM
RPMI-6666 (Hodgkin lymphoma, suspension) | 0.897 | > 4 µM
Raji (Burkitt lymphoma, suspension) | 0.972 | > 4 µM
Ramos-2G6-4C10 (Burkitt lymphoma, suspension) | 0.947 | > 4 µM
SCH (stomach, adherent) | 0.973 | > 4 µM
SF539 (glioma, adherent) | 0.964 | > 4 µM

same assay, conditions: top dose 5.12 µM; screen: GDSC drug entry 62

Cell Line | AUC | IC50
NCI-H2081 (small cell lung carcinoma, suspension) | 0.978 | > 5.12 µM
NCI-H2135 (non-small cell lung carcinoma, adherent) | 0.894 | > 5.12 µM
NCI-SNU-1 (stomach, suspension) | 0.917 | > 5.12 µM
NKM-1 (acute myeloid leukaemia, suspension) | 0.845 | 3.87 µM
OCI-AML2 (acute myeloid leukaemia, suspension) | 0.732 | 1.19 µM
OCI-M1 (acute myeloid leukaemia, suspension) | 0.65 | 0.746 µM
OMC-1 (cervix, adherent) | 0.935 | > 5.12 µM
OPM-2 (myeloma, suspension) | 0.578 | 0.502 µM
P30-OHK (lymphoblastic leukaemia, suspension) | 0.947 | > 5.12 µM
P31-FUJ (acute myeloid leukaemia, suspension) | 0.987 | > 5.12 µM
P32-ISH (Burkitt lymphoma, suspension) | 0.915 | 4.17 µM
PF-382 (T-cell lymphoblastic leukaemia, suspension) | 0.954 | > 5.12 µM
PSN1 (pancreas, adherent) | 0.528 | 0.376 µM
RCC10RGB (kidney, adherent) | 0.769 | 4.39 µM
REH (B-cell leukaemia, suspension) | 0.928 | > 5.12 µM
RF-48 (stomach, adherent) | 0.896 | > 5.12 µM
ROS-50 (B-cell leukaemia, suspension) | 0.97 | > 5.12 µM
RPMI-6666 (Hodgkin lymphoma, suspension) | 0.813 | 3.48 µM
Raji (Burkitt lymphoma, suspension) | 0.988 | > 5.12 µM
Ramos-2G6-4C10 (Burkitt lymphoma, suspension) | 0.978 | > 5.12 µM
SCH (stomach, adherent) | 0.987 | > 5.12 µM
SF539 (glioma, adherent) | 0.956 | > 5.12 µM

The IC50 comes from the fitted curve, where viability falls to half of the control; where the fit passes the top or lowest dose, that dose stands as a limit. The AUC spans the tested range (256-fold, ending at the top dose) of the same fit; values near 1 show little effect. Any top dose called inferred comes from the curve model; the source does not state it. For part of these data: Drugs with an entry number were screened twice under separate entries, and the two screens often disagree.
